From a compilation of properties of binary mixtures (doi:10.1021/acs.jced.2c00096)
Some of these densities may be calculated back from excess volumes.

Test: xn = mol fraction of the nth substance listed
Settings: 100 kPa

CCCC[N+]1(C)CCCC1.O=S(=O)([O-])C(F)(F)F + O
mass density [kg/m3]
Settings | 288.15 K | 293.15 K | 298.15 K | 303.15 K | 308.15 K | 313.15 K | 318.15 K | 323.15 K | 328.15 K | 333.15 K
x2 = 0.0597 | – | 1254 | – | 1246.7 | – | 1239.5 | 1236 | – | 1228.8 | 1225.3
x2 = 0.1203 | 1256.2 | 1252.5 | 1248.9 | 1245.3 | – | 1238.1 | – | 1230.8 | 1227.2 | 1223.7
x2 = 0.1956 | – | 1250.5 | – | 1243.2 | – | – | – | – | – | 1221.5
x2 = 0.3197 | – | – | 1242.6 | 1238.9 | 1235.2 | 1231.6 | – | 1224.2 | 1220.5 | 1216.9
x2 = 0.3766 | – | 1244 | – | – | – | 1229.1 | 1225.5 | 1221.8 | – | 1214.5
x2 = 0.4836 | – | 1238.6 | 1234.8 | 1230.9 | – | 1223.4 | 1219.6 | 1215.7 | 1212.1 | 1208.4
x2 = 0.5819 | 1235 | 1231.5 | 1227.6 | 1223.7 | 1219.8 | – | 1212.1 | – | 1204.4 | –
x2 = 0.6794 | 1224.7 | 1221.1 | – | 1213.3 | 1209.4 | 1205.3 | 1201.6 | – | 1193.8 | 1189.7
x2 = 0.7673 | – | 1206.4 | – | 1198.6 | 1194.7 | 1190.6 | 1186.7 | 1182.6 | 1178.6 | 1174.6
x2 = 0.8612 | 1179.6 | – | 1172.1 | 1168.4 | 1164.7 | 1160.6 | 1156.8 | 1153 | 1148.9 | 1144.9
x2 = 0.95 | – | 1106.1 | – | – | – | 1093.5 | – | – | – | 1079.8
